# Laboratory results as given in paper PMC4932475, “Evaluation of P-Glycoprotein Inhibitory Potential Using a Rhodamine 123 Accumulation Assay” (Pharmaceutics, 2016).
# “And” between values parts separate entries of the source, which are not always exact repeats. Equal values may be shown once. Read-outs that look alike come from different tables or passages of the source.
# Experiments:
# P-gp [1] = test system: P-gp; design: method as in Poirier et al. [41]; details: digoxin efflux ratio, MDR1-transfected cells; ref Poirier et al. [41]; cited from earlier work
# P-gp [2] = target: T1, P-gp (Homo sapiens, UniProt P08183); details: for rhodamine 123 accumulation in MCF7R cells: various concentrations, up to 100 µM
# P-gp [3] = details: ratio of highest versus lowest IC50 from five experimental measurements; ref Lee et al. [11]; cited from earlier work
# P-gp [4] = target: T1, P-gp; details: ref Poirier et al. [41], cited from earlier work; for Clinical Relevance: digoxin DDI relevance per study; for [I1] total plasma concentration / [I2] gut concentration: perpetrator in clinical digoxin DDI study
# P-gp [5] = target: T1, P-gp; assay: cell-based
# P-gp [6] = target: T1, P-gp; details: outcome versus clinic in brackets (TP, FP, TN, FN); for P-gp Inhibition Prediction (FDA Criteria) Digoxin IC50: IC50 from digoxin bidirectional transport assay of Poirier et al. [41]; for P-gp Inhibition Prediction (FDA Criteria) Rhodamine 123 IC50: IC50 from rhodamine 123 assay
# MCF7 cells = assay: Rhodamine 123 accumulation in parental MCF7 cells; details: 50 µM, 5.25 µM rhodamine 123, 30 min
# T1 sequence (P08183 whole entry): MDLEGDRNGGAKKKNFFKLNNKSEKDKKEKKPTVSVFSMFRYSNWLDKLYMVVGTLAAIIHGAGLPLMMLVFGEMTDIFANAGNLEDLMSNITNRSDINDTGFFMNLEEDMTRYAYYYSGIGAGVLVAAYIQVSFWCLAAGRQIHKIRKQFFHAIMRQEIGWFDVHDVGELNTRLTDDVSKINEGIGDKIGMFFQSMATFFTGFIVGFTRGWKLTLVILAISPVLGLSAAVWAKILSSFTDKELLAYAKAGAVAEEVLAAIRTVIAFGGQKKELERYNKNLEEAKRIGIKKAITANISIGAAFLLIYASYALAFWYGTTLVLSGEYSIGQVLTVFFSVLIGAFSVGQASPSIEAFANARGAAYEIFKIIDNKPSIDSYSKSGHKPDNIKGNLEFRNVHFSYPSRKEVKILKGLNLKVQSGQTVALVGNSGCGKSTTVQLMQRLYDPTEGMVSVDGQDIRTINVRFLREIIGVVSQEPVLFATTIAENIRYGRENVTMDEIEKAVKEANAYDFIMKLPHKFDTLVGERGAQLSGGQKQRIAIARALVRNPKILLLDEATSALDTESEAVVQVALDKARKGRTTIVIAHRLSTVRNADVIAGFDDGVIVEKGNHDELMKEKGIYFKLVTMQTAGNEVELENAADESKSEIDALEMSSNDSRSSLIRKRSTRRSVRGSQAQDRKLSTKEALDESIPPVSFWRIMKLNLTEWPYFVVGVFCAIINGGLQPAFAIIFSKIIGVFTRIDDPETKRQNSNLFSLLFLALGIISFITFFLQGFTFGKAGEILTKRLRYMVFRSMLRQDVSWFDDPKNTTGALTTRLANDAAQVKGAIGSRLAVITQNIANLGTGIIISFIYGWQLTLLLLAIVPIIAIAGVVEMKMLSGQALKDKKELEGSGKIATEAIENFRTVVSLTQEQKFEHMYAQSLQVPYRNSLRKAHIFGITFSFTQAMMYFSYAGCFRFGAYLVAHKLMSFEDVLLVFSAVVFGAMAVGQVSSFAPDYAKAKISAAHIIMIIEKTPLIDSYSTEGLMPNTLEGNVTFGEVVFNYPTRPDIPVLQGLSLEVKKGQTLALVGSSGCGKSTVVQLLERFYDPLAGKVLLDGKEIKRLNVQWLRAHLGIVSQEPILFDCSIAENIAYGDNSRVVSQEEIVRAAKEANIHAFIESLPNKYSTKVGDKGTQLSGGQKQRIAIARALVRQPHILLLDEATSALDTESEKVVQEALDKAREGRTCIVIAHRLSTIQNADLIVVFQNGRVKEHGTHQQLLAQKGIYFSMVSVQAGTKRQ
structure (smiles),measurement,setting,value
"COc1ccccc1OCCNCC(O)COc1cccc2[nH]c3ccccc3c12 (stereo not drawn) [Carvedilol, carvedilol]",IC50,P-gp [1],1.3 µM
"COc1cc2c(cc1OC)CN(CCc1ccc(NC(=O)c3cccc4c(=O)c5cccc(OC)c5[nH]c34)cc1)CC2 [Elacridar, elacridar]",dye accumulation in MCF7R cells,"P-gp [2]; 1 µM, 5.25 µM rhodamine 123, 30 min",increased dye accumulation
"COC(=O)C1=C(C)NC(C)=C(C(=O)OC(C)C)C1c1cccc2nonc12 (stereo not drawn) [Isradipine, isradipine]",IC50,P-gp [1],7.7 µM
same,IC50 Range for P-gp Inhibition (-fold),P-gp [3],24 -fold
same,Clinical Relevance,P-gp [4],+ (clinical relevance: AUCi/AUC ≥ 1.25 and/or Cmaxi/Cmax ≥ 1.25)
same,[I1] total plasma concentration,P-gp [4],0.02 µM
same,[I2] gut concentration,P-gp [4],54 µM
same,IC50,P-gp [5],83.1 ± 10.8 µM
"CCC(C)n1ncn(-c2ccc(N3CCN(c4ccc(OCC5COC(Cn6cncn6)(c6ccc(Cl)cc6Cl)O5)cc4)CC3)cc2)c1=O (stereo not drawn) [Itraconazole, itraconazole]",IC50,P-gp [1],1.8 µM
same,Clinical Relevance,P-gp [4],+ (clinical relevance: AUCi/AUC ≥ 1.25 and/or Cmaxi/Cmax ≥ 1.25)
same,[I1] total plasma concentration,P-gp [4],0.95 µM
same,[I2] gut concentration,P-gp [4],1134 µM
same,P-gp Inhibition Prediction (FDA Criteria) Digoxin IC50,P-gp [6],+ (TP)
same,rhodamine 123 accumulation in MCF7R cells,P-gp [2],not to increase
"COC(=O)C1=C(C)NC(C)=C(C(=O)OCCN(C)Cc2ccccc2)C1c1cccc([N+](=O)[O-])c1 (stereo not drawn) [Nicardipine, nicardipine]",[I1] total plasma concentration,P-gp [4],0.18 µM
same,[I2] gut concentration,P-gp [4],250 µM
same,P-gp Inhibition Prediction (FDA Criteria) Digoxin IC50,P-gp [6],+ (FP)
same,P-gp Inhibition Prediction (FDA Criteria) Rhodamine 123 IC50,P-gp [6],+ (FP)
"CCOC(=O)C1=C(C)NC(C)=C(C(=O)OC)C1c1cccc([N+](=O)[O-])c1 (stereo not drawn) [Nitrendipine, nitrendipine]",IC50,P-gp [1],18.2 µM
same,IC50 Range for P-gp Inhibition (-fold),P-gp [3],72 -fold
same,[I1] total plasma concentration,P-gp [4],0.03 µM and 0.015 µM
same,[I2] gut concentration,P-gp [4],222 µM and 111 µM
same,P-gp Inhibition Prediction (FDA Criteria) Digoxin IC50,P-gp [6],+ (TP)
same,IC50,P-gp [5],251 ± 43.8 µM
"CN[C@H]1CC[C@@H](c2ccc(Cl)c(Cl)c2)c2ccccc21 [Sertraline, sertraline]",rhodamine 123 accumulation in MCF7R cells,P-gp [2],not to increase
"Cc1c(C)c2c(c(C)c1O)CCC(C)(COc1ccc(CC3SC(=O)NC3=O)cc1)O2 (stereo not drawn) [Troglitazone, troglitazone]",IC50,P-gp [1],15.9 µM
same,IC50 Range for P-gp Inhibition (-fold),P-gp [3],36 -fold
same,Clinical Relevance,P-gp [4],− (non relevant DDI (ratio AUCi/AUC < 1.25 and ratio Cmaxi/Cmax < 1.25))
same,[I1] total plasma concentration,P-gp [4],3.62 µM
same,P-gp Inhibition Prediction (FDA Criteria) Digoxin IC50,P-gp [6],+ (FP)
same,P-gp Inhibition Prediction (FDA Criteria) Rhodamine 123 IC50,P-gp [6],+ (FP)
same,IC50,P-gp [5],44.1 ± 7.7 µM
"COc1ccc(CCN(C)CCCC(C#N)(c2ccc(OC)c(OC)c2)C(C)C)cc1OC (stereo not drawn) [Verapamil, verapamil]",rhodamine 123 level in MCF7 cells,MCF7 cells,did not alter
"O[C@@H](COc1cccc2ncccc12)CN1CCN([C@@H]2c3ccccc3[C@@H]3[C@H](c4ccccc42)C3(F)F)CC1 [Zosuquidar, zosuquidar]",IC50,P-gp [1],0.02 µM
COc1ccc2c3c([nH]c2c1)[C@H](C=C(C)C)N1C(=O)[C@@H]2CCCN2C(=O)[C@@H]1C3 [fumitremorgin C],rhodamine 123 levels in MCF7R cells,"P-gp [2]; 10 µM, 5.25 µM rhodamine 123, 30 min",failed to augment
CCCN(CCC)S(=O)(=O)c1ccc(C(=O)O)cc1 [probenecid],rhodamine 123 levels in MCF7R cells,"P-gp [2]; 2 mM, 5.25 µM rhodamine 123, 30 min",failed to augment
